# PubChem BioAssay AID485294 (National Center for Advancing Translational Sciences (NCATS), 2010)
# Screen size: about 370,000 compounds; about 150 (0.041%) were called active. Inconclusive means that the source gave no clear call. Such entries were picked first, then a sample of the others. Calls follow the shape of the dose curve; as a rule, active = well fitted inhibition curve with a large enough effect; inconclusive = small, poorly fitted or top-dose-only effect; inactive = flat fitted curve, though single readings scatter. Potencies of inconclusive entries are left out as doubtful fits.
# Target: Beta-lactamase (Escherichia coli (strain K12)) (UniProt P00811)
# Sequence of UniProt P00811 (P00811 whole entry, looked up): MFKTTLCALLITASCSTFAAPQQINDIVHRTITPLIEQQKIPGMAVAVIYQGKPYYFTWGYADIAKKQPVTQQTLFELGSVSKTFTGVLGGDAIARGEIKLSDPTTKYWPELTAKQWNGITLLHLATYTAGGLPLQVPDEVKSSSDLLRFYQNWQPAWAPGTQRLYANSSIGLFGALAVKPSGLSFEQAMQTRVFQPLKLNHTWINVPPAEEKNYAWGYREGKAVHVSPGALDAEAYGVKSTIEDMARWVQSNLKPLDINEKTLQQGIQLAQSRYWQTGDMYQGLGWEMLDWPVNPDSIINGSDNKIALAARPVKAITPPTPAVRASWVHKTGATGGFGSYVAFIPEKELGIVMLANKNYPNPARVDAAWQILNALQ
# Experiment: qHTS Inhibitors of AmpC Beta-Lactamase (assay with detergent); also: nearly all actives have a fitted effect of over 25% in size;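 as to activity change, negative = inhibition: 0% = no-compound wells and -100% = no-enzyme wells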
# Settings: AmpC hydrolysis of nitrocefin, absorbance 480 nm, 0.01% Triton; activity change, negative = inhibition: at 114 µM (top of the series)
# Outline: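 20 mM phosphate pH 7.0 + 0.01% (detergent screen) or 0.0001% Triton X-100; 5.3 nM AmpC reagent; cpd preinc 15 min RT; nitrocefin (800 uM stock) to start; A480 q20 s × 4 min; Activity was normalised to no-enzyme and no-compound control wells.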
# Potency is read from the fitted curve at half-maximal effect; tags tell the direction and shape of the fitted curve.
Compound,"activity change, negative = inhibition",Potency
Cc1ccccc1CNC(=O)Cn1c(C)c2cnn(-c3ccccc3)c(=O)c2c1C,inactive: 19.2%,–
CC(C)NC(=O)NC(=O)COC(=O)Cc1ccsc1,–,"inconclusive [inhibitor, full curve]"
Cc1c(NC(=O)Cn2nc(C(=O)O)c3ccccc3c2=O)c(=O)n(-c2ccccc2)n1C,–,"inconclusive [inhibitor, full curve]"
CCN1CCN(c2ccc(S(=O)(=O)N3CCOCC3)cc2NC(=O)c2ccccc2SC)CC1,–,"inconclusive [inhibitor, partial curve]"
CN(C)c1ccc(CN2CCCC(O)C2)cc1 (stereo not given),–,"inconclusive [inhibitor, partial curve, poor fit]"
COc1ccccc1S(=O)(=O)Cc1ccc(C(=O)NCc2cccnc2)o1,–,"inconclusive [inhibitor, full curve, poor fit]"
O=C(NC1=NCCS1)c1sc2ccccc2c1Cl,inactive: 1.75%,–
CNc1nc(Cl)nc(Nc2ccccc2)n1,inactive: -0.638%,–
CCCn1c(=O)c(C(=O)NCc2ccccc2)c(O)c2ccccc21,–,"inconclusive [inhibitor, single point]"
O=C(Nc1ccc(OCc2cc(=O)n3c4c(sc3n2)CCCC4)cc1)c1cccc(F)c1,inactive: -4.5%,–
Cc1cccc(NC(=O)c2ccc3nc(N4CCOCC4)sc3c2)c1C,inactive: 8.69%,–
COc1ccc(CNC(=O)[C@@H](C)NC(=O)C2CCN(C(=O)[C@@H](N)CCSC)CC2)cc1,–,"inconclusive [inhibitor, full curve, poor fit]"
CC(=O)Nc1ccc(C(=O)OC2CCOC2=O)cc1 (stereo not given),–,"inconclusive [inhibitor, full curve, poor fit]"
O=C(COc1ccc(Cl)cc1)NCc1nnc2c3ccccc3c(-c3ccccc3)nn12,–,"inconclusive [inhibitor, full curve, poor fit]"
Cc1cc(C)c(C(=O)COC(=O)c2cccnc2Cl)c(C)c1,inactive: -11.7%,–
NC(=O)c1ccsc1N,inactive: 0.434%,–
CC1(C)Cc2c(sc(NC(=O)C(=O)NCCCN3CCOCC3)c2C#N)CO1,inactive: -3.79%,–
CCOc1ccc(NC(=O)c2c(C)nn(-c3ccc(F)cc3)c2-n2cccc2)cc1,inactive: -3.24%,–
CCn1cc(CN2CCCC(C(=O)Nc3cccc(-n4cccn4)c3)C2)c(C)n1 (stereo not given),–,"inconclusive [inhibitor, full curve, poor fit]"
O=C(CCC(=O)N1CCN(S(=O)(=O)c2ccccc2)CC1)c1cccs1,–,"inconclusive [inhibitor, full curve]"
O=C(Cn1nnc(-c2ccccc2)n1)N1CCCCC1,inactive: 16.9%,–
N#CC1=C(N)NC(SCc2ccc(Br)cc2)=C(C#N)C12CCCCC2,inactive: -14.6%,–
NS(=O)(=O)c1cc(C(=O)OCC(=O)NNC(=O)c2ccccc2)ccc1Cl,–,"inconclusive [inhibitor, full curve, poor fit]"

Compound,"activity change, negative = inhibition",Potency
Cc1ccc(C)c2[nH]c(=O)c(CCNS(=O)(=O)c3ccccc3)cc12,–,"inconclusive [inhibitor, full curve, poor fit]"
O=C(NCCCn1ccnc1)/C(=C\c1cccs1)NC(=O)c1ccco1,–,"inconclusive [inhibitor, full curve]"
FC(F)(F)c1cnc(-c2cnc(-c3ccncc3)nc2)c(Cl)c1,inactive: -4.07%,–
CC(=O)Cc1nsc(NC(=O)c2ccc(COc3ccccc3Cl)o2)n1,inactive: -7.9%,–
CCOc1ccc(NC(=O)CN(C)C(=O)CSCc2ccc(C)cc2)cc1OCC,–,"inconclusive [inhibitor, full curve]"
COCCCNCCCOc1ccc(C(C)(C)c2ccccc2)cc1,inactive: 2.43%,–
COc1ccc(Nc2nc3ccccc3nc2NS(=O)(=O)c2ccc(C)cc2)c(OC)c1,inactive: 9.63%,–
COc1ccc2c(c1)c1ccc3c(c1n2C)C(=O)C=CC3=O,inactive: 3.03%,–
CCOc1ccc(NCC(=O)Nc2ccc(C)cc2C)cc1,–,"inconclusive [inhibitor, full curve, poor fit]"
CCC(C)[C@H](NC(=O)NCCCn1ccnc1)C(=O)OC (stereo not given in full),–,"inconclusive [inhibitor, full curve, poor fit]"
COc1ccc(N(CC(=O)NCCc2ccc(S(N)(=O)=O)cc2)S(=O)(=O)c2c(C)noc2C)cc1,inactive: 2.68%,–
Cc1ccc(OCC(=O)N/N=C2/SCC(=O)N2Cc2ccccc2)cc1,–,"inconclusive [inhibitor, full curve, poor fit]"
CCCNC(=O)OC[C@H]1O[C@H](CCO/N=C/c2ccc(C(=O)N3[C@H](c4ccc(C)cc4)[C@@H](C)CC[C@H]3C(=O)OC)cc2)C=C[C@@H]1Oc1ccc(OC)cc1,–,"inconclusive [inhibitor, full curve, poor fit]"
Cc1cccc(C)c1NC(=O)C1CCN(S(C)(=O)=O)CC1,–,"inconclusive [inhibitor, full curve, poor fit]"
CC1CCCN(S(=O)(=O)c2ccc(NC(=O)Cc3ccc(S(=O)(=O)N4CCOCC4)s3)cc2)C1 (stereo not given),–,"inconclusive [inhibitor, full curve, poor fit]"
CC(=O)Nc1ccc(NC(=O)c2cc(=O)c3ccccc3o2)cc1,–,"inconclusive [inhibitor, partial curve]"
O=C(COc1ccc(F)cc1)Nc1nnc(C2CC2)s1,–,"inconclusive [inhibitor, partial curve, poor fit]"
CN1/C(=C\C(=S)NC(=O)c2cccc(Br)c2)C(C)(C)c2ccccc21,inactive: -5.43%,–
COC(=O)C1=C(C(=O)OC)C(c2cc([N+](=O)[O-])ccc2O)c2sc(=O)[nH]c2S1 (stereo not given),–,"inconclusive [inhibitor, partial curve]"
COc1ccc(O)c(C=Nc2cc(C)on2)c1,–,"inconclusive [inhibitor, full curve, poor fit]"
CN(C)c1ccc(CNC(=O)C2CCN(S(=O)(=O)c3ccc4c(c3)CCCC(=O)N4)CC2)cc1,inactive: 1.53%,–
COc1ccccc1/C=C/c1nc2ccc(OC(C)=O)cc2c(=O)o1,–,"inconclusive [inhibitor, partial curve, poor fit]"
